Test results as given in PMC5394680, “The Cac2 subunit is essential for productive histone binding and nucleosome assembly in CAF-1” (Scientific Reports, 2017).

Columns and labels:
[1] = target: T1, Cac3 (small subunit of yeast CAF-1) (yeast, UniProt P13712); assay: SEC; gel filtration of the purified tCAF-1 sub-complexes (Supplementary Figure 2a); details: both partners purified
T1 construct: Cac3, small subunit of yeast CAF-1; source: SF21 insect cells, purified (in isolation and in complexes)

[2] = target: T2, Cac2 (middle subunit of yeast CAF-1), C-terminal His-tag (yeast, UniProt Q04199); assay: as above; details: both partners purified
T2 construct: Cac2, middle subunit of yeast CAF-1, residues 1-449 (short C-terminal deletion to remove a region predicted to be disordered); The limits 1-449 are stated for all complexes; also called Cac2-His; source: SF21 insect cells; purified (in isolation and in complexes); in insect cell lysate for the His-pulldowns; not shown: His-tag, C-terminal, kept

binding result [1]: binds | binding result [2]: binds
B1: tCac1 (truncated Cac1, […]) (domain or fragment)
chain: not shown
notes: source: SF21 insect cells, co-expressed; purified within tCAF-1 complexes; in insect cell lysate for the His-pulldowns
